Measurements published in PubChem BioAssay AID1345083 (National Center for Advancing Translational Sciences (NCATS), 2018).
Hit rate of the full screen: of about 94,000 compounds, about 6,200 (6.6%) were called active. Inconclusive means that the source gave no clear call. Such entries were picked first, then a sample of the others. The call rests on the fitted dose curve; in most records, active means well fitted inhibition curve with a large enough effect; inconclusive means small, poorly fitted or top-dose-only effect; inactive means flat fitted curve, though single readings scatter. Where the call is inconclusive, the potency comes from a doubtful curve fit.
Potency means the concentration at half of the fitted maximal effect; tags describe the fitted curve by direction and shape.

Assay: Cytotoxic Profiling in HEK 293 Cell Line of Diverse Libraries Using Quantitative High-Throughput Screening; further: nearly all actives have a fitted effect of over 60% in size
Details: HEK 293 viability, ATP luminescence (CellTiter-Glo), 48-72 h; series mostly up to 115 µM
How it was run: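 250 HEK 293 cells/well; compound by pintool; incubated 48 or 72 hr at 37 degree Celsius; CellTiter-Glo added, 10 min RT, luminescence imaged.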
With Cc1ccc(C(=O)N2CCC(N3C(=O)c4c(c(C)nn4-c4ccccc4)C3C(C)C)C2)cc1 (centres undefined) the Potency was inconclusive: 50.1 µM [inhibitor, partial curve, poor fit].
In the case of C#CCNC(=O)c1nc(-c2cccnc2)c2cnccn12, the Potency is reported as inconclusive: 126 µM [inhibitor, single point].
With Cc1ccc(-c2nc(CNC(=O)C3(N)CCC3)[nH]c2-c2ccccn2)cc1 the Potency was inconclusive: 89.1 µM [inhibitor, single point].
With O=C(Cc1ccccc1)N1CCCCCC1c1nnc(-c2ccccc2)o1 (centres undefined) the Potency was inconclusive: 89.1 µM [inhibitor, single point].
For CN1c2cc(C(=O)NCc3ccc(Cl)cc3)ccc2C(=O)N2CCCCCC21 (centres undefined), the Potency was inconclusive: 44.7 µM [inhibitor, partial curve, poor fit].
In the case of CC1CCN(C(=O)C[C@@H]2c3nc(NC(=O)c4c(F)cccc4F)sc3C[C@@H]3[C@](C)(CO)[C@H](O)CC[C@]32C)CC1, the Potency is reported as inconclusive: 50.1 µM [inhibitor, partial curve, poor fit].
For CCOC(=O)C1(Cc2ccc(F)cc2)CCCNC1 (centres undefined), the Potency was “inactive”.
In the case of CC1CCN(CC2CCCN(C(=O)CC3CCCC3)CC2)CC1 (centres undefined), the Potency is reported as inconclusive: 35.5 µM [inhibitor, partial curve].
With COCCCNC(=O)N1CCC(F)(c2nc(CC(C)C)no2)CC1 the Potency was “inactive”.
With Cc1cc(C(=O)NCc2c[nH]c3ncccc23)ccc1Cl the Potency was inconclusive: 100 µM [inhibitor, partial curve, poor fit].
With CCCc1noc(-c2ccn3c(CNC(=O)c4ccc(CC)cc4)nnc3c2)n1 the Potency was “inactive”.
For CC(C)c1noc(-c2cccn3c(CNC(=O)C4CCCCC4)nnc23)n1, the Potency was “inactive”.
With COc1ccc(CN2CCC3(CN[S+](=O)([O-])c4ccccc4N3)C2)cc1 (centres undefined) the Potency was “inactive”.
In the case of CN1c2cc(C(=O)Nc3cccc(F)c3)ccc2C(=O)N2CCCCC21 (centres undefined), the Potency is reported as inconclusive: 31.6 µM [inhibitor, full curve].
With C[S+](=O)([O-])N1C2CCC1CN(c1ccc(C(F)(F)F)cc1)C2 the Potency was inconclusive: 56.2 µM [inhibitor, partial curve, poor fit].
For Cc1ccc(C(=O)N2CC(c3nnc(-c4ccncc4)o3)C3(CCOCC3)C2)s1 (centres undefined), the Potency was “inactive”.
In the case of CCc1cc(N2CCC3(CC2)CC(c2ccccc2)C(=O)N3)nc(N(C)C)n1 (centres undefined), the Potency is reported as inconclusive: 89.1 µM [inhibitor, single point].
With CCc1ccc(NC(=O)Cn2ccn3nc(-c4ccccc4)c(CO)c3c2=O)cc1 the Potency was inconclusive: 100 µM [inhibitor, single point].
For Cc1cnc(-c2cccnc2)n1C1CCN(S(=O)(=O)c2cccc(F)c2)CC1, the Potency was “inactive”.
For CN1C[C@H](C(=O)Nc2ccccc2)C[C@H]1c1cccc(C(F)(F)F)c1, the Potency was active: 79.4 µM.
For Cc1cc(CN2CCn3c(nnc3-c3ccccc3)C2)no1, the Potency was “inactive”.
In the case of Cn1ncc2c(C(=O)NCc3ccccc3)cc(-c3ccccc3F)nc21, the Potency is reported as inconclusive: 50.1 µM [inhibitor, partial curve, poor fit].
For O=C(Nc1ccc(C2(C(=O)NCc3ccc(F)cc3Cl)CCC2)cc1)C1CC1, the Potency was inconclusive: 50.1 µM [inhibitor, partial curve, poor fit].
In the case of O=C(N[C@@H]1CCC[C@@H]1C(=O)NCCCc1ccccc1)c1ccncc1, the Potency is reported as “inactive”.
In the case of COc1ccc(C(C)NC(=O)c2ccc(Cn3ccn4nc5c(c4c3=O)CCCC5)cc2)cc1OC (centres undefined), the Potency is reported as inconclusive: 39.8 µM [inhibitor, full curve, poor fit].
For O=C(Nc1ccc(Cl)cc1)c1nc2c(o1)CCN(CC1CC1)CC2, the Potency was inconclusive: 50.1 µM [inhibitor, full curve, poor fit].
In the case of O=C(NCc1cccc(C(F)(F)F)c1)c1ccc2nnc(-c3ccc(Cl)cc3)n2c1, the Potency is reported as active: 44.7 µM.
For COc1ccccc1N1CCN(C(=O)C[C@@H]2CCNC[C@@H]2Cc2cc(-c3ccc(C(C)(C)C)cc3)on2)CC1, the Potency was inconclusive: 50.1 µM [inhibitor, partial curve, poor fit].
In the case of CC(=O)N1CC2(Cc3ccccc31)CN([S+](=O)([O-])c1cccc(C(F)(F)F)c1)C2, the Potency is reported as inconclusive: 89.1 µM [inhibitor, single point].
With COc1ccc(-c2noc(Nc3ccc(OC)cc3OC)n2)cc1 the Potency was inconclusive: 12.6 µM [inhibitor, partial curve, poor fit].
With COc1cccc(CN2CCNc3cnc(-c4ccccc4)cc3C2)c1 the Potency was active: 89.1 µM.
With O=C(c1ccccc1)N1CCC2(CC1)C(=O)NCN2C(=O)Cc1ccc(O)cc1 the Potency was “inactive”.
For COc1ccc(Nc2ccnc(N3CCC(C(=O)N4CCCCC4)CC3)n2)cc1, the Potency was inconclusive: 56.2 µM [inhibitor, partial curve, poor fit].
With COc1ccc(-c2cc(C(=O)NCc3cccc(OC)c3)c3cnn(C)c3n2)cc1 the Potency was inconclusive: 25.1 µM [inhibitor, full curve].
With CSc1ccc(-c2cccc(C(=O)NCC(=O)NCC3CC3)c2)cc1 the Potency was inconclusive: 35.5 µM [inhibitor, full curve].
For COc1cccc(CNC(=O)[C@@H]2C[C@@H](O)CN2C2CCN(C(=O)COc3cccc(C)c3)CC2)c1, the Potency was “inactive”.
With CC(=O)NCC(=O)NCc1nnc2ccc(-c3ccc(C)c(C)c3)nn12 the Potency was “inactive”.
With COCC1CN(C2CCC2)CC12CCN(C(=O)c1ccc3ncccc3c1)CC2 (centres undefined) the Potency was “inactive”.
With Cc1ccc(C)c(NC(=O)c2cc3cn(C4CC4)cc3s2)c1 the Potency was inconclusive: 44.7 µM [inhibitor, partial curve, poor fit].
For O=S(=O)(NC1CCCN(c2nc3ccccc3s2)C1)N1CCCC1 (centres undefined), the Potency was inconclusive: 79.4 µM [inhibitor, partial curve, poor fit].
In the case of C[C@@H]1CN(C(=O)c2ccc3c(c2)NC(C)(CCCCc2ccccc2)CO3)C[C@H](C)O1 (some centres undefined), the Potency is reported as inconclusive: 63.1 µM [inhibitor, partial curve, poor fit].
With Cc1nc2n(c1C(=O)NCc1cccs1)CCC(Nc1ccccc1)C2 (centres undefined) the Potency was inconclusive: 100 µM [inhibitor, partial curve, poor fit].
For CC(C)(C)c1ccc(C(=O)N2CCN(C(=O)c3nnn4c3COC(c3ccc(F)cc3)C4)CC2)cc1 (centres undefined), the Potency was inconclusive: 50.1 µM [inhibitor, partial curve, poor fit].
With CC(=O)N1CCC2(CC1)CN(C(=O)c1cccc3[nH]ccc13)Cc1ccccc1O2 the Potency was “inactive”.
In the case of COc1ccc2c3c1CN(C(C)=O)CC3=CC(C)(C)CO2, the Potency is reported as inconclusive: 89.1 µM [inhibitor, partial curve, poor fit].
With COc1ccc(-c2cc(N3CCC(NC(=O)c4ccc(F)cc4F)CC3)n[nH]2)cc1 the Potency was inconclusive: 50.1 µM [inhibitor, partial curve, poor fit].
For CCC1(N2CCN(C(=O)c3ccc(C(F)(F)F)s3)CC2)CCN(C(=O)NC)C1 (centres undefined), the Potency was inconclusive: 89.1 µM [inhibitor, single point].
In the case of Cc1ccccc1N(C)C1CN([S+](=O)([O-])c2c(C)noc2C)C1, the Potency is reported as inconclusive: 100 µM [inhibitor, partial curve, poor fit].
With COC(=O)CNC(=O)c1cc(-c2ccsc2)c2nncn2n1 the Potency was “inactive”.
In the case of O=C(Cc1cccc(C(F)(F)F)c1)N1CCCc2ncc(C(=O)N3CCCC[C@@H]3c3ccccc3)cc21, the Potency is reported as active: 79.4 µM.
In the case of CCC(C(=O)N1CCc2onc(-c3ccc(F)c(F)c3)c2C1)n1cccn1 (centres undefined), the Potency is reported as inconclusive: 50.1 µM [inhibitor, partial curve, poor fit].
With CC(C)C(=O)N1CCC(Cc2noc(-c3ccccc3)n2)C1 (centres undefined) the Potency was “inactive”.
With O=C(Nc1ccccc1)N1CCN(c2nc3ncccc3o2)CC1 the Potency was inconclusive: 35.5 µM [inhibitor, partial curve, poor fit].
With CN(Cc1ccc(-n2cccn2)cc1)Cc1nc(Cc2cccc(F)c2)no1 the Potency was inconclusive: 89.1 µM [inhibitor, single point].
With COc1ccccc1CNC[C@H]1Cn2c(-c3cccc(Cl)c3)cnc2CO1 the Potency was active: 79.4 µM.
In the case of O=C(c1cccc(F)c1)N1CCC(Oc2ccccc2-c2nc(C3CCOCC3)no2)C1 (centres undefined), the Potency is reported as inconclusive: 100 µM [inhibitor, partial curve, poor fit].
For OCC1CN(c2ccncn2)CC12CCN(Cc1cc(F)c(F)c(F)c1)CC2 (centres undefined), the Potency was inconclusive: 56.2 µM [inhibitor, partial curve, poor fit].
With O=C(NC1CCCN(c2cc(-c3ccccc3)[nH]n2)C1)c1nccc2ccccc12 (centres undefined) the Potency was inconclusive: 50.1 µM [inhibitor, partial curve, poor fit].
With Cc1ccc(OCc2nc(C3CCN(C(=O)c4ccn[nH]4)CC3)no2)cc1 the Potency was inconclusive: 56.2 µM [inhibitor, partial curve, poor fit].
In the case of CCCNC(=O)CC(c1ccc(OC)c(OC)c1)c1c[nH]c2c(CC)cccc12 (centres undefined), the Potency is reported as inconclusive: 89.1 µM [inhibitor, single point].
With O=C(NC1CC1)c1ccc2c(c1)C1(CCN(CC3CC3)C1)CN2Cc1ccccc1 (centres undefined) the Potency was inconclusive: 63.1 µM [inhibitor, full curve].
In the case of CCO[C@H]1CN(C2CCN(c3ccc4c(c3)CCC4)CC2)C[C@@H]1O, the Potency is reported as inconclusive: 89.1 µM [inhibitor, single point].
For COCC(=O)N1CCCC(c2noc(COc3ccccc3F)n2)C1 (centres undefined), the Potency was “inactive”.
In the case of Cc1nn(-c2ccccc2)c2c1C(C1CC1)N(C1CN(C(=O)NC(C)c3ccccc3)C1)C2=O (centres undefined), the Potency is reported as inconclusive: 28.2 µM [inhibitor, full curve].
